Reference: PubChem BioAssay (NCI)
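Grown in 96-well plates, cells were treated for 48 hours with each compound at five concentrations. Insufficient inhibition: endpoint recorded as highest concentration tested. At the GI50, growth is halved.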 For part of its entries the source gives two or more results. The other results are left out here. The source may hold further records. Records of one sample usually come from different ranges of test concentrations, which the source does not state; a value can be the end of its range.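 TGI is the concentration that stops growth completely.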

How the values were obtained:
Experiment in all cases: inhibition of tumour cell growth, NCI panel, 48 h
[1] = tested on: SK-MEL-2 melanoma
[2] = tested on: NCI-H226 lung
[3] = tested on: MALME-3M melanoma
[4] = tested on: MDA-MB-435
[5] = tested on: SN12C renal
[6] = tested on: BT-549 breast
[7] = tested on: PC-3 prostate
[8] = tested on: SF-539 CNS
[9] = tested on: UACC-257 melanoma
[10] = tested on: COLO 205 colon
[11] = tested on: UO-31 renal
[12] = tested on: MDA-N
[13] = tested on: SF-268 CNS
[14] = tested on: T-47D breast
[15] = tested on: LOX IMVI melanoma
[16] = tested on: HCT-116 colon
[17] = tested on: SK-MEL-5 melanoma
[18] = tested on: SF-295 CNS
[19] = tested on: KM20L2 colon
[20] = tested on: HL-60(TB) leukemia
[21] = tested on: OVCAR-5 ovarian
[22] = tested on: UACC-62 melanoma
[23] = tested on: NCI-H23 lung
[24] = tested on: SW-620 colon
[25] = tested on: OVCAR-8 ovarian
[26] = tested on: MDA-MB-231 breast
[27] = tested on: HCT-15 colon
[28] = tested on: TK-10 renal
[29] = tested on: K-562 leukemia
[30] = tested on: SK-OV-3 ovarian
[31] = tested on: DU-145 prostate
[32] = tested on: HS 578T breast
[33] = tested on: CAKI-1 renal
[34] = tested on: HOP-92 NSCLC
[35] = tested on: IGROV1 ovarian
[36] = tested on: U251 CNS
[37] = tested on: SNB-19 CNS
[38] = tested on: MOLT-4 leukemia
[39] = tested on: 786-0 renal
[40] = tested on: RPMI-8226 leukemia
[41] = tested on: CCRF-CEM leukemia
[42] = tested on: HT29 colon
[43] = tested on: SNB-75 CNS
[44] = tested on: M14 melanoma
[45] = tested on: OVCAR-4 ovarian
[46] = tested on: NCI-H522 lung
[47] = tested on: SR leukemia
[48] = tested on: EKVX NSCLC
[49] = tested on: KM12 colon
[50] = tested on: A498 renal
[51] = tested on: HOP-62 NSCLC
[52] = tested on: HCC-2998 colon
[53] = tested on: ACHN renal
[54] = tested on: NCI-H460 lung
[55] = tested on: RXF 393 renal
[56] = tested on: OVCAR-3 ovarian

With `CC(=O)O[C@H]1C(=O)[C@@]2(C)[C@H]([C@H](OC(=O)c3ccccc3)[C@]3(O)C[C@H](OC(=O)[C@H](O)[C@@H](NC(=O)c4ccccc4)c4ccccc4)C(C)=C1C3(C)C)[C@]1(OC(C)=O)CO[C@@H]1C[C@@H]2O` the TGI [1] was 2.59 nM [1 test] and 394 nM, 9.02 µM [mean of 14 tests] and 681 nM [mean of 2 tests], the TGI [2] was 25.4 µM [1 test] and 642 nM [mean of 16 tests] and 7.19 µM [mean of 18 tests] and 545 nM [mean of 2 tests] and 16.6 µM [mean of 6 tests] and the TGI [3] was 912 nM, 3.98 µM, 6.12 µM, 64.2 µM. For the same compound, the TGI [4] was 37.1 nM, > 100 µM [1 test] and 16.8 nM [mean of 16 tests] and 53.8 nM [mean of 3 tests], the TGI [5] was 953 nM, 1.3 µM, 17.4 µM, 82.8 µM, > 83.3 µM and the TGI [6] was 783 nM, 540 nM, 1.19 µM, 474 nM, 15.2 µM. The TGI [7] was 794 nM, 195 nM, 2.78 µM, 11.8 µM, > 100 µM, 31.5 µM, the TGI [8] was 76.9 nM, 4.48 nM, 25.2 nM, 59.3 nM, > 100 µM, 36.9 nM and the TGI [9] was 52.1 nM [1 test] and 20.3 µM [mean of 12 tests] and 825 nM [mean of 18 tests] and 441 nM, 40.9 µM [mean of 2 tests] and 53.8 µM [mean of 5 tests]. The TGI [10] was 179 nM, 60.3 nM, 1.48 µM, 1.11 µM, 5.15 µM, the TGI [11] was 60.1 nM, 2.04 µM, 18.3 µM, 36.8 µM, 38.3 µM and the TGI [12] was 10.6 nM, 254 nM, 261 nM. The TGI [13] was 952 nM, 778 nM, 24.2 µM, 59.9 µM, the TGI [14] was 88.9 µM [1 test] and 909 nM [mean of 15 tests] and 25 µM [mean of 17 tests] and 616 nM [mean of 2 tests] and 60.8 µM [mean of 8 tests] and the TGI [15] was 787 nM, 14.3 µM, 21.7 µM, 22.4 µM. For the same compound, the TGI [16] was 704 nM, 127 nM, 606 nM, 18.4 µM, 15.1 µM, 33.3 µM, the TGI [17] was 596 nM, 978 nM, 863 nM, 9.38 µM, 21.6 µM and the TGI [18] was 230 nM [1 test] and 353 nM [mean of 15 tests] and 802 nM [mean of 18 tests] and 537 nM [mean of 2 tests] and 4.3 µM [mean of 8 tests]. The GI50 [19] was 0.104 nM [1 test] and 3.41 nM [mean of 3 tests], the TGI [19] was 3.48 nM [1 test] and 116 nM [mean of 3 tests] and the TGI [20] was 43.3 nM, 88.1 nM, 41.5 nM, 29.7 µM, 357 nM. The TGI [21] was 740 nM [mean of 16 tests] and 1.51 µM, 5.44 µM [mean of 2 tests] and 4.9 µM [mean of 27 tests] and 40.5 µM [mean of 8 tests], the TGI [22] was 990 nM, 760 nM, 9.95 µM, 20.8 µM, 38.9 µM and the TGI [23] was 782 nM, 1.65 µM, 2.81 µM, 43.8 µM. For the same compound, the TGI [24] was 748 nM, 22.7 µM, > 69 µM, > 100 µM, the TGI [25] was > 100 µM [1 test] and 542 nM [mean of 18 tests] and 182 nM, 4.45 µM [mean of 2 tests] and 21.7 µM [mean of 23 tests] and 42.7 µM [mean of 6 tests] and the TGI [26] was 697 nM, 775 nM, 8.19 µM, 14.5 µM, 30.4 µM. The TGI [27] was 1.17 µM, > 62.1 µM [mean of 2 tests] and 17 µM [mean of 27 tests] and 57.6 µM [mean of 8 tests], the TGI [28] was 915 nM [mean of 17 tests] and 142 nM, 958 nM, > 43.1 µM [mean of 2 tests] and 2.66 µM [mean of 20 tests] and 52.1 µM [mean of 8 tests] and the TGI [29] was 10.4 nM [1 test] and 543 nM [mean of 16 tests] and > 100 µM [mean of 2 tests] and 14.2 µM [mean of 26 tests] and 57.6 µM [mean of 7 tests]. For the same compound, the TGI [30] was 631 nM, 1.8 µM, 15.8 µM, > 100 µM, 35.9 µM, the TGI [31] was 190 nM, 10.2 nM, 481 nM, > 100 µM, 992 nM and the TGI [32] was 6.84 nM [1 test] and 79.6 nM [mean of 17 tests] and 83.5 nM [mean of 20 tests] and 422 nM [mean of 7 tests]. The TGI [33] was 1.67 µM, 13.3 µM, 98.4 µM, the TGI [34] was 89.5 nM [1 test] and 974 nM [mean of 16 tests] and 8.38 µM [mean of 18 tests] and 59 µM [mean of 5 tests] and the TGI [35] was 670 nM, 2.87 µM, 16.3 µM, 65.1 µM, > 84.4 µM. The TGI [36] was 624 nM, 2.69 µM, 8.79 µM, 48.2 µM, 30.6 µM, the TGI [37] was 785 nM, 851 nM, 22.1 µM, > 100 µM, > 82.8 µM and the TGI [38] was 948 nM [mean of 17 tests] and 375 nM, > 59.5 µM [mean of 2 tests] and 7.23 µM [mean of 25 tests] and 72.9 µM [mean of 8 tests]. For the same compound, the TGI [39] was 873 nM, 802 nM, 1.89 µM, 22.3 µM, > 100 µM, 48.8 µM, the TGI [40] was 499 nM, 111 nM, 2.02 µM, > 100 µM, 10.9 µM and the TGI [41] was 589 nM, 242 nM, 9.35 µM, > 100 µM, 7.08 µM. The TGI [42] was 167 nM, 55.4 nM, 749 nM, 527 nM, 12.9 µM, 30.8 µM, the TGI [43] was 11 nM [1 test] and 98.2 nM [mean of 15 tests] and 240 nM, 700 nM [mean of 2 tests] and 95.9 nM [mean of 20 tests] and 225 nM [mean of 4 tests] and the TGI [44] was 371 nM, 121 nM, 25 µM, 15.4 µM, 41.8 µM. For the same compound, the TGI [45] was 4.5 µM, 65.9 µM [mean of 2 tests] and 19 µM [mean of 23 tests] and > 100 µM [mean of 8 tests], the TGI [46] was 7.59 nM [1 test] and 90.8 nM [mean of 13 tests] and 1.2 µM [mean of 15 tests] and 0.145 nM [mean of 2 tests] and 1.53 µM [mean of 5 tests] and the TGI [47] was > 100 µM [1 test] and 3.28 µM [mean of 14 tests] and 271 nM [mean of 15 tests] and 167 nM [mean of 2 tests] and 15.1 µM [mean of 7 tests]. For the same compound, the TGI [48] was 983 nM [mean of 17 tests] and > 100 µM [mean of 2 tests] and 23.8 µM [mean of 24 tests] and > 82.9 µM [mean of 8 tests], the TGI [49] was 44.8 nM, 44.1 µM [1 test] and 259 nM [mean of 16 tests] and 320 nM [mean of 2 tests] and 21.3 µM [mean of 24 tests] and 9.61 µM [mean of 8 tests] and the TGI [50] was 724 nM, 611 nM, 16.4 µM, 60 µM, 23.1 µM. For the same compound, the TGI [51] was 47.7 nM [1 test] and 751 nM [mean of 16 tests] and 13.5 µM [mean of 2 tests] and 5.37 µM [mean of 21 tests] and 43.5 µM [mean of 8 tests], the TGI [52] was 151 nM, 4.66 nM, 230 nM, 16.8 µM, 2.97 µM and the TGI [53] was 4.27 µM [mean of 2 tests] and 15.7 µM [mean of 20 tests] and 47.8 µM [mean of 7 tests]. For the same compound, the TGI [54] was 867 nM, 1.36 µM, 21 µM, 12 µM, 39.5 µM, the TGI [55] was 465 nM, 440 nM, 74.3 nM, 821 nM, 12.7 µM, 933 nM and the TGI [56] was 9.72 nM, 32.1 nM [1 test] and 154 nM [mean of 16 tests] and 1.98 µM [mean of 2 tests] and 44.9 nM [mean of 24 tests] and 15 µM [mean of 4 tests].
